This is an account of results in PubChem BioAssay AID1240 (Sanford-Burnham Center for Chemical Genomics, 2008).

About 800 (1.6%) of roughly 50,000 compounds showed an effect of 50% or more. Some of the results follow.

The assay has as its target Bcl-2-like protein 10 (Homo sapiens) (UniProt Q9HD36). Nature of the assay: Phenotype converters, Bcl-B/TR3 peptide binding displacement, primary biochemical FP (AID 1240).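 Also: 0% = Bcl-B with tracer peptide and DMSO and 100% = tracer peptide lacking Bcl-B.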 The conditions noted are these: GST-Bcl-B / FITC-TR3 peptide fluorescence polarization; stronger effect = higher value; compound at 3.75 mg/L. (In general: Polarisation of emitted light reports the rotation of a fluorescent probe.)
Chain of UniProt Q9HD36 (Q9HD36 whole entry, looked up): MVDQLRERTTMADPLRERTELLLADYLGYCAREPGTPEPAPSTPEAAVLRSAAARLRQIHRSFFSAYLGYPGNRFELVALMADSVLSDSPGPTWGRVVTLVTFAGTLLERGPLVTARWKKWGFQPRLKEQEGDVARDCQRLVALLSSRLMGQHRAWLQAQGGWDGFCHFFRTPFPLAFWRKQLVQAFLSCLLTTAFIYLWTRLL
In the case of `CCc1ccccc1NC(=O)c1c(-c2ccccc2Cl)noc1C`, the displacement came out at 2.7%.
Take `C=CCc1cccc(/C=N/N=C2c3ccccc3Cc3ccccc32)c1O`: the displacement came to 13.9%.
Next, `CCOCCOC(=O)C1=C(C)NC2=C(C(=O)CCC2)C1c1cc(OC)c(OC)c(OC)c1` (centres undefined): 7.9%; `Cc1ccc2nc(SCC(=O)Nc3nc4ccccc4s3)[nH]c2c1`: -29.3%.
With `CC(=O)Nc1nonc1-c1nc2ccccc2n1Cc1ccccc1`, the displacement was found to be 49.8%.
Regarding `Cc1cc(C)c2nc3s/c(=C\c4ccc(-c5cc([N+](=O)[O-])c(C)cc5C)o4)c(=O)n3c2c1`, the displacement was -20.8%.
Turning to `CC(=O)Nc1ccc(NC(=O)CCC(=O)O)cc1`, the displacement is 14.3%.
With `CCN(CC)S(=O)(=O)c1ccc(N=Cc2c(C)[nH]n(-c3ccc(Cl)cc3)c2=O)cc1` the figure was -9.1%; with `CC(=C=CC(C)(C)C1OCC(C)(C)CO1)CCC=C(C)C`, 10.8%.
As to `COc1ccc(C(C)NC(=O)c2ccc(Br)cc2)cc1` (centres undefined), the displacement was -13%.
Next, `CCOC(=O)c1c(NC(=O)CSc2nncn2C)sc2c1CCCC2`: 12.2%; `O=C1NC(=S)S/C1=C\c1cn(CCOc2ccccc2F)c2ccccc12`: -62.3%.
With `COc1ccc(C2CC(=O)C3=C(C2)Nc2ccccc2NC3c2ccc(F)c(F)c2)cc1` (centres undefined) the figure was 8.2%; with `COc1ccc(S(=O)(=O)N(CC(=O)N2CCCC2)Cc2ccccc2)cc1`, 3.9%; with `COc1ccc(NC(=O)Nc2ccccc2C(F)(F)F)cc1`, 8.4%.
With `Fc1ccc(-c2noc(/C=C/c3ccccc3)n2)cc1`, the displacement is -12.2%.
Next, `Cn1c(=O)c(-c2ccccc2N)nc2ccccc21`: -5.4%.
With `Cn1c(=O)n(C)c2cc(/C=N\NC(N)=S)ccc21` the figure was -8.9%; with `CCOc1ccc(S(=O)(=O)N(CC(=O)Nc2cccc(C(C)=O)c2)c2ccc(C)cc2)cc1`, 5.3%; with `CCN(CC)C(=O)CCc1ccccc1`, 4.5%.
Next, `Cn1c(=O)cc(-c2ccccc2)c2ccccc21`: 7.4%.
Regarding `COc1ccccc1C/C(N)=N/OC(=O)COc1ccc(C)cc1C`, the displacement is -13.4%.
Next, `O=[N+]([O-])c1cccc(/C=N/Nc2cc(N3CCCC3)nc(N3CCCC3)n2)c1`: 15.1%.
Next, `COc1ccc(C=C2C(=O)N(C)C(=O)N(C)C2=O)c(OC)c1OC`: -10.4%.
With `Cc1c(NC(=O)/C=C/c2cccc([N+](=O)[O-])c2)cccc1-c1nc2ncccc2o1`, the displacement was found to be 74.8%.
Next, `CS(=O)(=O)c1ccc2nc(NC(=O)c3ccco3)sc2c1`: 12%.
For `Cc1ccnc(NC(=O)CSc2nc3ccccc3[nH]2)c1`, the displacement was determined as 4.2%.
Turning to `CCOc1ccc2cc(S(=O)(=O)N3CCN(c4ccccc4)CC3)ccc2c1`, the displacement was -2.6%.
Turning to `COc1ccc(OC)c(NC(=S)NC(=O)/C=C/c2ccccc2)c1`, the displacement was determined as 13.1%.
Regarding `CN(C)c1ccc(C2N(C)c3ccccc3N2C)cc1`, the displacement came out at 5.5%.
Consider `Nc1ccc(Cl)c(-c2nc3cc(Cl)ccc3o2)c1`, for which the displacement worked out at 12.6%.
As to `COc1cc(OC)c(OC)cc1CNCC1OCCc2ccccc21` (centres undefined), the displacement was 10.6%.
For `COCCNC(=O)CN(c1cc(Cl)ccc1OC)S(=O)(=O)c1ccc(C)c([N+](=O)[O-])c1`, the displacement stood at 8.4%.
Consider `COc1cccc(N2C(=O)C(=O)/C(=C(\O)c3ccccc3)C2c2ccc(Br)cc2)c1` (centres undefined), for which the displacement stood at 3.3%.
Next, `COc1ccccc1C1(O)CC(c2ccc(C)cc2)NC(c2ccc(C)cc2)C1C` (centres undefined): 11.7%; `O=C(c1ccccc1F)N1CCN(c2ccc([N+](=O)[O-])c3cccnc23)CC1`: 10.3%; `COC(=O)c1ccccc1-c1ccc(/C=C2\C(=O)NN(c3ccccc3)C2=O)o1`: 15.4%.
As for `CC(=O)Nc1ccc(S(=O)(=O)NNC(=O)c2ccccc2Cl)cc1`, the displacement is 10.4%.
For `COc1ccccc1CN1CCN(Cc2ccco2)CC1`, the displacement is -15%.
With `COc1ccc(C)cc1NC(=O)c1cccnc1` the figure was 20.4%.
As to `CN(C)c1ccc(-c2c(C#N)c(N)[nH]c(=S)c2C#N)cc1`, the displacement amounted to 6.5%.
With `N#Cc1c(N)nc(SCC(=O)c2ccccc2)c(C#N)c1-c1ccc(Cl)cc1` the figure was 4%; with `CC1N(c2ccccn2)c2ccccc2N1c1ccccn1`, -10.6%.
For the compound `CCOc1ccc(/C=C2/C(=O)NN(c3ccccc3)C2=O)cc1`, the displacement is -1.6%.
Turning to `O=C(NC(=S)Nc1ccc(Cl)cc1)c1ccc([N+](=O)[O-])cc1`, the displacement was -4.2%.
As for `O=[N+]([O-])c1cc2c(cc1C=Nc1cc(Cl)cc(Cl)c1)OCO2`, the displacement was -7.8%.
On to `COc1ccc([N+](=O)[O-])cc1-c1ccc(/C=C(/C#N)C(=O)Nc2cccc(Br)c2)o1`, for which the displacement turned out to be 7.6%.
With `C=CCN(CC=C)C(=O)C1CC(=O)N(c2ccc(Br)cc2)C1` (centres undefined) the figure was 10.8%; with `COc1ccc(NC(=O)c2cccc(Cl)c2Cl)cc1OC`, -3.4%.
Next, `O=C(Nc1ccccc1C(=O)O)c1ccc(Cl)c(Cl)c1`: 3.9%; `COc1ccc(C2C3C(=O)N(c4ccc(Br)cc4)C(=O)C3N3CCCN23)cc1` (centres undefined): -7.7%; `COc1cc(-c2nc3ccccn3c2/N=C/c2ccccc2)ccc1O`: 9.8%.
On to `O=C1/C(=C/c2ccc(Br)o2)SC(=S)N1c1cccc(C(F)(F)F)c1`, for which the displacement was 21.6%.
With `COc1ccc(Br)cc1C(=O)Nc1ccc(NC(=O)c2ccco2)cc1` the figure was -1.9%.
For `CC1(C)Cc2c(sc(/N=C/N3CCCCC3)c2C#N)C(C)(C)N1`, the displacement was -1.9%.
Next, `O=C(O)CCCN1C(=O)C(=O)/C(=C(/O)c2ccccc2)C1c1ccc(Cl)cc1Cl` (centres undefined): -16.3%; `O=C(/C=C/c1ccccc1)NCc1ccc(Cl)cc1`: -8.7%.
Next, `CC1=NN(c2nc(-c3ccccc3)cs2)C(=O)/C1=C\c1ccc(O)cc1`: -18.8%.
Turning to `O=C(O)c1ccc(CN2CCOCC2)o1`, the displacement is -5.7%.
For the compound `CCOc1ccc(C(=O)Nc2cc(OC)ccc2OC)cc1Br`, the displacement was -9%.
Next, `COc1ccc(/C=C2/NC(=O)/C(=C/c3ccc(OC)cc3)C2=O)cc1`: -0.8%.
For the compound `COc1ccc(OC)c(NC(=O)C2CN(S(=O)(=O)c3ccccc3)CCN2S(=O)(=O)c2ccccc2)c1` (centres undefined), the displacement turned out to be 3.6%.
For `CCOC(=O)C1=C(O)/C(=C/c2ccc(F)cc2)SC1=Nc1ccc([N+](=O)[O-])cc1`, the displacement was 59.1%.
Next, `Cc1ccc(C(=O)N/C(=C/c2cccs2)C(=O)NN)cc1`: -8.9%; `COc1cc2c(cc1NC(=O)c1ccc(I)cc1)oc1ccccc12`: 11.6%.
On to `COc1cccc(Nc2ccc3noc4c3c2C(=O)c2ccccc2-4)c1`, for which the displacement was -0.6%.
With `CCN(CC)c1ccc(/C=C2\C(=O)NC(=O)N(c3ccc(OC)cc3)C2=O)c(OC)c1` the figure was 10%; with `O=C1c2ccccc2NC(c2ccccc2O)N1Cc1ccco1` (centres undefined), 14.5%; with `COc1ccc(/C=C2\SC(N3CCC(C)CC3)=NC2=O)c(OC)c1`, -10.3%.
